# Measurements published in publication PMC7819943, “Rice protein-binding microarrays: a tool to detect cis-acting elements near promoter regions in rice”.
# Some of the results follow.
# Biological target: T1, OsWOX13 (Oryza sativa, UniProt Q5QMM3 1-267)
# T1 sequence: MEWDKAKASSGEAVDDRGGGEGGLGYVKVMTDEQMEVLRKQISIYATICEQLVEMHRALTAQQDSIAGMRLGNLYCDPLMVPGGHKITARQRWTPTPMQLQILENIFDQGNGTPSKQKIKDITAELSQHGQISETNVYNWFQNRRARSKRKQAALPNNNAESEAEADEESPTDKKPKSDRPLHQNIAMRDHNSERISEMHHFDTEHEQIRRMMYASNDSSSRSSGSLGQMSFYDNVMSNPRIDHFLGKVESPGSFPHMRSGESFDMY
# Assay: protein-binding microarray (RPBM); PBS, 2% BSA, 51.3 ng/ul salmon testes DNA, 50 uM zinc acetate, 200 nM TF, 25 C, 1 h; high values mean tight binding
# Details: protein: recombinant; tags: N-terminal polyhistidine and DsRed monomer fusion (pET32a); label: CyDye5-dUTP incorporated in the synthesized complementary strand; 3' TTTTT single-stranded linker to array surface; dsDNA, one strand shown
# Summary of the method: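 Using Ni–NTA, transcription factors fused N-terminally to polyhistidine and DsRed were purified after expression in E. coli BL21-CodonPlus. These were incubated at 200 nM with a blocked, double-stranded custom Agilent array for 1 h at 25 °C in a buffer containing 50 µM zinc acetate, and the array was washed. The binding signal is per-feature fluorescence intensity (arbitrary units) on an Axon 4000B scanner.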
row,Sequence,binding signal
1,GTTTTAATTTGATTTTCTACGTGTTGAAATTAACTGCTCACGGAGTCACCTAGTGCAG,40000 fluorescence intensity (a.u.)
2,GTTAATAATTACCAAGACTCGTTCTATGTATCTGAGTGAACGGAGTCACCTAGTGCAG,10300 fluorescence intensity (a.u.)
3,AATTGGCTTGGCTAATTAATTACTCCATTTGCGAACATGGCGGAGTCACCTAGTGCAG,4010 fluorescence intensity (a.u.)
4,TGTTCTTGATTTTGATCCCTTATTACAAGTGACTTTGCCACGGAGTCACCTAGTGCAG,4420 fluorescence intensity (a.u.)
5,CTCCAAATTAGAGGATCTCAATCCAGTATATAAACATCCGCGGAGTCACCTAGTGCAG,4880 fluorescence intensity (a.u.)
6,ACTTTCAAAACTTAAATTTACCGCTGATAACACCAGAATTCGGAGTCACCTAGTGCAG,3810 fluorescence intensity (a.u.)
7,TCAAATCATGATGTAATTAGACTCAAAAGATTAGTTTCGCCGGAGTCACCTAGTGCAG,42300 fluorescence intensity (a.u.)
8,GTAGAAACACATAATGGCATCAATTACCATAATATTAACACGGAGTCACCTAGTGCAG,5500 fluorescence intensity (a.u.)
9,TAGACTCATTACACCGGTAATCATCTATAAATGGGTCAACCGGAGTCACCTAGTGCAG,3400 fluorescence intensity (a.u.)
10,CAAATTGTCCTTACCTGATTTCCTCTGACAAATGTTTAGTCGGAGTCACCTAGTGCAG,7070 fluorescence intensity (a.u.)
11,TTTTGTGATAATTTAGTTAAACTACCCGTAGTTTTGTGAACGGAGTCACCTAGTGCAG,7750 fluorescence intensity (a.u.)
12,CTGTTTTATTTAATGATTTTGCATAACTTAAACATGCAAACGGAGTCACCTAGTGCAG,4480 fluorescence intensity (a.u.)
13,CAAAACAAATTATAGATTCCGCCTGTAGACTACGAGACGACGGAGTCACCTAGTGCAG,8770 fluorescence intensity (a.u.)
14,GGAGCATTATTGTTAATTGCACGTCCCAACATTAGTACTACGGAGTCACCTAGTGCAG,3870 fluorescence intensity (a.u.)
15,TTGCAAATTATTTACTGAAAATTCTTTATTAAGATGTTAACGGAGTCACCTAGTGCAG,10500 fluorescence intensity (a.u.)
16,TGAGCACCAATTAAACCAATCACTGATATACGAGGTTGGTCGGAGTCACCTAGTGCAG,31500 fluorescence intensity (a.u.)
17,ATGATGGAGGGTTGTGATTGGTTGAGTAGTGGAGATAGGTCGGAGTCACCTAGTGCAG,10500 fluorescence intensity (a.u.)
18,TTCCCACTCAATTGCGTTACAGTTTTCTCCCACAGATCCACGGAGTCACCTAGTGCAG,3480 fluorescence intensity (a.u.)
19,TATTCAATTAAATAATTAAAAGGATTGTAGCAAATCCGGACGGAGTCACCTAGTGCAG,23600 fluorescence intensity (a.u.)
20,TGGGCCTAACTAATCCATGATTAGCCTATGTGATGCTACACGGAGTCACCTAGTGCAG,6160 fluorescence intensity (a.u.)
21,CAAGCTCCTATTATCAATTATCAAGATAGAATTTTATCGACGGAGTCACCTAGTGCAG,7900 fluorescence intensity (a.u.)
22,CATATGATTTATATCTTTTACCTCTACTATTAATAGAGTGCGGAGTCACCTAGTGCAG,26100 fluorescence intensity (a.u.)
23,ATTCAAATTCAAATTTGAATCAGATATATAAACTTTTGACCGGAGTCACCTAGTGCAG,3810 fluorescence intensity (a.u.)
